# This is one part of the list.
# B1: PX14375C-bth-509-28-509 (Bacteroides thetaiotaomicron) (protein)
# chain: RSPQGQFTEDDNPNALVNGKIYNVYTMMRSFDITAGTPAIAIHYLRSEDSEKGSIPSDGSDVAEMYDDFLYTPTNGLLGSYWGKNYAIIYQCNDILDAIAEKETAGQTETEDIINKGEASFFRAYCYFNLVRAFGEVPLVTYKINDASEANIPKTTADKIYEQIDTDLKTAEESLPETWSTEYTGRLTWGAARSLHARTYMMRSDWDNMYKASTDVINKGLYNLKTPYNEIFTDDGENSGGSIFELQCTATAALPQSDVIGSQFCEVQGVRGAGQWDLGWGWHMATQLMADAYETGDPRKNATLLYFRKTDDEPITPENTNEPYGESPISPAMGAYFNKKAYTDPALRKEYTNKGFWVNIRLIRYSDVVLMAAEAANEKNIPGEAVDYLEMVRARARGTNTNILPKITTNDQGELREAIRHERRVELGLEPDRFYDLVRWGIASEVLHAAGKVNYQDKNALLPLPQSEIDKSKGVLVQNPDY
# Tests used:
# Experiment in all cases: glycan array binding signal (z-score within array); higher = stronger binding
# Conditions in all cases: glycan notation: IUPAC condensed, linker removed
# [1] = target: Neu5Ac(a2-6)GlcNAc(b1-4)GlcNAc(b1-4)GlcNAc
# Method in brief: (§1)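 Glycan array data were curated from 3228 arrays in the Consortium for Functional Glycomics database and kept only where the protein sequence was available. Glycan names were converted to IUPAC-condensed notation, and columns mapping to the same glycan were averaged. The binding signal is a within-array Z-score, averaged across arrays of the same protein sequence at different concentrations or buffers and across linkers. Negative Z-scores can be read as non-binding.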
# Neu5Ac(a2-8)Neu5Ac = target: Neu5Ac(a2-8)Neu5Ac
# Method in brief: as §1
# [2] = target: Neu5Ac(a2-8)Neu5Ac(a2-3)Gal(b1-3)GalNAc(b1-4)[Neu5Ac(a2-3)]Gal(b1-4)Glc
# Method in brief: as §1
# [3] = target: Neu5Ac(a2-8)Neu5Ac(a2-3)Gal(b1-3)GalNAc(b1-4)[Neu5Ac(a2-8)Neu5Ac(a2-3)]Gal(b1-4)Glc
# Method in brief: as §1
# [4] = target: Neu5Ac(a2-8)Neu5Ac(a2-3)Gal(b1-4)Glc
# Method in brief: as §1
# [5] = target: Neu5Ac(a2-8)Neu5Ac(a2-3)Gal(b1-4)GlcNAc
# Method in brief: as §1
# [6] = target: Neu5Ac(a2-8)Neu5Ac(a2-3)[Gal(b1-3)GalNAc(b1-4)]Gal(b1-4)Glc
# Method in brief: as §1
# [7] = target: Neu5Ac(a2-8)Neu5Ac(a2-3)[GalNAc(b1-4)]Gal(b1-4)Glc
# Method in brief: as §1
# [8] = target: Neu5Ac(a2-8)Neu5Ac(a2-8)Neu5Ac
# Method in brief: as §1
# [9] = target: Neu5Ac(a2-8)Neu5Ac(a2-8)Neu5Ac(a2-3)Gal(b1-4)Glc
# Method in brief: as §1
# [10] = target: Neu5Ac(a2-8)Neu5Ac(a2-8)Neu5Ac(a2-3)[Gal(b1-3)GalNAc(b1-4)]Gal(b1-4)Glc
# Method in brief: as §1
# [11] = target: Neu5Ac(a2-8)Neu5Ac(a2-8)Neu5Ac(a2-3)[GalNAc(b1-4)]Gal(b1-4)Glc
# Method in brief: as §1
# [12] = target: Neu5Ac(a2-8)Neu5Ac(a2-8)Neu5Ac(a2-8)Neu5Ac(a2-3)[GalNAc(b1-4)]Gal(b1-4)Glc
# Method in brief: as §1
# [13] = target: Neu5Ac(a2-8)Neu5Gc(a2-3)Gal(b1-4)GlcNAc
# Method in brief: as §1
# [14] = target: Neu5Ac(b2-6)Gal(b1-4)GlcNAc
# Method in brief: as §1
# Neu5Ac(b2-6)GalNAc = target: Neu5Ac(b2-6)GalNAc
# Method in brief: as §1
# [15] = target: Neu5Ac9Ac(a2-3)Gal(b1-3)GlcNAc
# Method in brief: as §1
# [16] = target: Neu5Ac9Ac(a2-3)Gal(b1-4)GlcNAc
# Method in brief: as §1
# [17] = target: Neu5Ac9Ac(a2-6)Gal(b1-4)GlcNAc
# Method in brief: as §1
# [18] = target: Neu5Gc(a2-3)Gal(b1-3)GlcNAc
# Method in brief: as §1
# [19] = target: Neu5Gc(a2-3)Gal(b1-3)[Fuc(a1-4)]GlcNAc
# Method in brief: as §1
# Neu5Gc(a2-3)Gal(b1-4)Glc = target: Neu5Gc(a2-3)Gal(b1-4)Glc
# Method in brief: as §1
# [20] = target: Neu5Gc(a2-3)Gal(b1-4)GlcNAc
# Method in brief: as §1
# [21] = target: Neu5Gc(a2-3)Gal(b1-4)GlcNAc(b1-3)Gal(b1-4)GlcNAc(b1-2)Man(a1-3)[Neu5Gc(a2-3)Gal(b1-4)GlcNAc(b1-3)Gal(b1-4)GlcNAc(b1-2)Man(a1-6)]Man(b1-4)GlcNAc(b1-4)GlcNAc
# Method in brief: as §1
# [22] = target: Neu5Gc(a2-3)Gal(b1-4)[Fuc(a1-3)]GlcNAc
# Method in brief: as §1
# [23] = target: Neu5Gc(a2-6)Gal(b1-4)GlcNAc
# Method in brief: as §1
# Neu5Gc(a2-6)GalNAc = target: Neu5Gc(a2-6)GalNAc
# Method in brief: as §1
# [24] = target: Neu5Gc(a2-8)Neu5Ac(a2-3)Gal(b1-4)GlcNAc
# Method in brief: as §1
# [25] = target: Neu5Gc(a2-8)Neu5Gc(a2-3)Gal(b1-4)GlcNAc
# Method in brief: as §1
# [26] = target: Neu5Gc(a2-8)Neu5Gc(a2-3)Gal(b1-4)GlcNAc(b1-3)Gal(b1-4)GlcNAc
# Method in brief: as §1
# [27] = target: Neu5Gc(a2-8)Neu5Gc(a2-6)Gal(b1-4)GlcNAc
# Method in brief: as §1
# [28] = target: Neu5Gc(b2-6)Gal(b1-4)GlcNAc
# Method in brief: as §1
binder,measurement,setting,value
B1,glycan array binding signal (z-score),[1],-0.356
same,glycan array binding signal (z-score),Neu5Ac(a2-8)Neu5Ac,4.99
same,glycan array binding signal (z-score),[2],-0.132
same,glycan array binding signal (z-score),[3],-0.305
same,glycan array binding signal (z-score),[4],-0.278
same,glycan array binding signal (z-score),[5],-0.08
same,glycan array binding signal (z-score),[6],-0.376
same,glycan array binding signal (z-score),[7],-0.197
same,glycan array binding signal (z-score),[8],-0.37
same,glycan array binding signal (z-score),[9],-0.502
same,glycan array binding signal (z-score),[10],-0.213
same,glycan array binding signal (z-score),[11],-0.314
same,glycan array binding signal (z-score),[12],0.139
same,glycan array binding signal (z-score),[13],5.56
same,glycan array binding signal (z-score),[14],0.233
same,glycan array binding signal (z-score),Neu5Ac(b2-6)GalNAc,-0.269
same,glycan array binding signal (z-score),[15],-0.47
same,glycan array binding signal (z-score),[16],-0.093
same,glycan array binding signal (z-score),[17],-0.236
same,glycan array binding signal (z-score),[18],-0.256
same,glycan array binding signal (z-score),[19],-0.166
same,glycan array binding signal (z-score),Neu5Gc(a2-3)Gal(b1-4)Glc,-0.075
same,glycan array binding signal (z-score),[20],-0.215
same,glycan array binding signal (z-score),[21],2.42
same,glycan array binding signal (z-score),[22],-0.511
same,glycan array binding signal (z-score),[23],-0.332
same,glycan array binding signal (z-score),Neu5Gc(a2-6)GalNAc,-0.21
same,glycan array binding signal (z-score),[24],-0.167
same,glycan array binding signal (z-score),[25],-0.338
same,glycan array binding signal (z-score),[26],-0.272
same,glycan array binding signal (z-score),[27],-0.469
same,glycan array binding signal (z-score),[28],-0.215

# From the supplement of paper PMC8728848
